The target of one experiment is T1, HsG7^46–131 (human, UniProt Q9H840 46-131).
T1 construct: human Gemin7, residues 46-131 (residues 47-131 in the model); also called human Gemin7 46-131; His6-HsG7^46–131; source: E. coli BL21(DE3), co-expressed with HsG6 1-92, purified
T1 sequence (looked up): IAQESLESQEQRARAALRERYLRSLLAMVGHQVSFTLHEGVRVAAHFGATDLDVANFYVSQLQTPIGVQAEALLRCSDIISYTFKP
In words: crystal structure; HsG6 1–92/HsG7 46–131/HsG8 190–230, 1.52 Å, PDB 7BBL; both purified.

Chains of the proteins cited; added tags and fusions are not shown. Lines headed by an entry give the natural chain unless they say otherwise; changes in a name come on top. A line that says so, or that is headed by a name, gives the form on record, which may keep a tag or linker. Residues count along the entry.
MBP-Hs-YG-domain^252–284 (wt) (Q16637, residues 252-284): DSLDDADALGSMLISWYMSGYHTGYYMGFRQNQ
MBP-Hs-YG-domain^252–284 M263T (Q16637, form named): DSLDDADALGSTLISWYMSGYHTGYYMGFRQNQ
MBP-Hs-YG-domain^252–284 M263R (Q16637, form named): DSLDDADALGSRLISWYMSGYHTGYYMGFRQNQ
MBP-Hs-YG-domain^252–284 S266P (Q16637, form named): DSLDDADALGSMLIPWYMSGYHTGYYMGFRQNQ
MBP-Hs-YG-domain^252–284 Y272C (Q16637, form named): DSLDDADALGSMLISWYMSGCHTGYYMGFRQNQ
MBP-Hs-YG-domain^252–284 T274I (Q16637, form named): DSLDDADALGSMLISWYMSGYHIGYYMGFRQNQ
MBP-Hs-YG-domain^252–284 H273R (Q16637, form named): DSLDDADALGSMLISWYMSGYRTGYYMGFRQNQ
UniProt Q8WXD5, residues 1-92: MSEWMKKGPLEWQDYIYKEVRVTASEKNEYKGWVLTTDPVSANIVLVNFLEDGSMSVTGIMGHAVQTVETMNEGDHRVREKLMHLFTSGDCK

The next experiment concerns the target T2, His6-SpSMN (S. pombe) (UniProt Q09808).
T2 sequence: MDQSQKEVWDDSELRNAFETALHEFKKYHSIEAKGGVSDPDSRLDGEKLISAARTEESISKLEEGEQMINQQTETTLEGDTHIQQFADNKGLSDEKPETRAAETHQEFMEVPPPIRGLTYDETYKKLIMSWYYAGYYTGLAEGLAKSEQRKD
In words: pull-down; co-expression in E. coli from polycistronic constructs, Ni-NTA purification through the His6-tagged subunit, SDS-PAGE.

The target in experiment [1] is T3, SpSMN (two-hybrid fusion) (S. pombe) (UniProt Q09808).
T3 sequence: T2 sequence
As to the kind of experiment: two-hybrid; pASΔΔ baits in CG1945 mated with pACT2st preys in Y187; growth on –Trp–Leu–His plates, 30°C, 3–5 days.

For experiment [2], the target named is T4, His6-SpG2^ΔN80 (S. pombe) (UniProt P0CU08).
T4 sequence: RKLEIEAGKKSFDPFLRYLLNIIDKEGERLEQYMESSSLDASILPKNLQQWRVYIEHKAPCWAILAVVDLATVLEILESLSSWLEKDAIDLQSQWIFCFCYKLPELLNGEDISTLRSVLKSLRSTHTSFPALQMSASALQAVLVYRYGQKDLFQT
As to the kind of experiment: pull-down; co-expression in E. coli from polycistronic constructs, Ni-NTA purification through the His6-tagged subunit, SDS-PAGE.

The target in another experiment is T5, His6-SpG2 (S. pombe) (UniProt P0CU08).
T5 sequence: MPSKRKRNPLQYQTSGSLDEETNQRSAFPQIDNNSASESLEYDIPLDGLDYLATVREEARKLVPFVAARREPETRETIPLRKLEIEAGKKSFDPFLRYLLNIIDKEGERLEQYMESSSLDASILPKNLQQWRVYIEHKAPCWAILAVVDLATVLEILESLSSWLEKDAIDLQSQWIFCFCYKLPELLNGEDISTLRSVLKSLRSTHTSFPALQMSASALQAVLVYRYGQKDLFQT
The description is as above.

Experiment [3] has as its target MBP-Hs-YG-domain^252–284 (wt) (human) (UniProt Q16637). In words: pull-down; MBP fusion proteins immobilized on Amylose resin, in vitro translated [35S]-HsG8; HEPES pH 7.0, 150 mM NaCl, 2 mM DTT, 4°C, 3 h; wash with 300 mM NaCl; autoradiography; only the target purified.
Experiment [4] addresses MBP-Hs-YG-domain^252–284 M263T (human) (UniProt Q16637). The description is as above.
Experiment [5] concerns the target MBP-Hs-YG-domain^252–284 M263R (human) (UniProt Q16637). The description is as above.
Experiment [6] deals with MBP-Hs-YG-domain^252–284 S266P (human) (UniProt Q16637). The description is as above.
For experiment [7], the target named is MBP-Hs-YG-domain^252–284 Y272C (human) (UniProt Q16637). Described as above.
Experiment [8] has as its target MBP-Hs-YG-domain^252–284 T274I (human) (UniProt Q16637). The description is as above.
Experiment [9] has as its target MBP-Hs-YG-domain^252–284 H273R (human) (UniProt Q16637). The description is as above.

The results in this text go back to paper PMC8287938, “Identification and structural analysis of the Schizosaccharomyces pombe SMN complex” (Nucleic Acids Research, 2021).

No constants are given. Whether binding was seen depends on the method and setting. For part of these data: Binding seen in cells or lysates may run through a third protein. Some entries that bind do so weakly or less than the wild type. For part of these data: Where a sequence is shown, tags or fusion partners need not be part of it.

Regarding “HsG6^1–92 (from UniProt Q8WXD5 1-92) (domain or fragment)”, the binding result with HsG7^46–131 was “binds”.

B1: SpG2 (untagged, E. coli) (protein, UniProt P0CU08 1-235)
chain: T5 sequence
Turning to B1, the binding entry with His6-SpSMN (S. pombe) is listed as “binds”.

B2: SpG2 (two-hybrid fusion) (protein, UniProt P0CU08 1-235)
chain: T5 sequence
In the case of B2, the binding result in [1] is recorded as “binds”.

B3: SpSMN (untagged, E. coli) (protein, UniProt Q09808 1-152)
chain: T2 sequence
With B3, the binding result (in [2]; in the experiment with His6-SpG2 (S. pombe)) was “binds” in each case.

B4: His6-HsG8 (full length), [35S]-labeled (protein, UniProt Q9NWZ8 1-242)
chain: MAAVKASTSKATRPWYSHPVYARYWQHYHQAMAWMQSHHNAYRKAVESCFNLPWYLPSALLPQSSYDNEAAYPQSFYDHHVAWQDYPCSSSHFRRSGQHPRYSSRIQASTKEDQALSKEEEMETESDAEVECDLSNMEITEELRQYFAETERHREERRRQQQLDAERLDSYVNADHDLYCNTRRSVEAPTERPGERRQAEMKRLYGDSAAKIQAMEAAVQLSFDKHCDRKQPKYWPVIPLKF
modifications: [35S]-methionine labeled
Regarding B4, the binding result was “binds” in experiment [3]; “binds” in experiment [4]; “binds” in [5]; “no binding” in experiment [6]; “binds” in [7]; “binds” in experiment [8]. Further, the binding entry in experiment [9] is given as “no binding”.
